Source: the supplement of paper PMC9151546
Most values come without repeats; read them as rough.

Columns and labels:
CHO-K1 [1] = assay: micronucleus frequency (% of nucleated events); higher = more micronuclei (genotoxic)
CHO-K1 [2] = assay: hypodiploid nuclei frequency (% of nucleated events); higher = more hypodiploid events (aneugenic)
CHO-K1 [3] = assay: relative survival (nuclei to bead ratio vs DMSO control) (% of vehicle control); higher = more surviving cells
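Wherever hypodiploid nuclei frequency (% of nucleated events) is given: hypodiploid nuclei gated on a flow cytometer with 488 nm excitation after SYTOX Green staining, cultures at 37 °C, positive controls vinblastine without S9 and cyclophosphamide with S9.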
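Wherever micronucleus frequency (% of nucleated events) is given: cells lysed with nuclei stained by SYTOX Green, then micronucleus-gated events counted against nucleated events by flow cytometry with 488 nm excitation.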
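Wherever relative survival (nuclei to bead ratio vs DMSO control) is given: Lysed-cell nuclei stained with SYTOX Green and counted against counting beads by flow cytometry at 488 nm excitation, with vinblastine (no S9) and cyclophosphamide (plus S9) as positive controls.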

c1ccc2[nH]c(-c3cscn3)nc2c1 [Thiabendazole]
Details	hypodiploid nuclei frequency, CHO-K1 [2] [%]	micronucleus frequency, CHO-K1 [1] [%]	relative survival, CHO-K1 [3]
concentration: 4.5 (µM), S9 metabolic activation: with S9, exposure time: 3-4 hours	0.19	1.31	101
concentration: 4.5 (µM), S9 metabolic activation: without S9, exposure time: 24 hours	1.19	3.14	84.5
concentration: 5.63 (µM), S9 metabolic activation: with S9, exposure time: 3-4 hours	0.36	1.56	113
concentration: 5.63 (µM), S9 metabolic activation: without S9, exposure time: 24 hours	1.22	2.89	103
concentration: 7.04 (µM), S9 metabolic activation: with S9, exposure time: 3-4 hours	0.26	1.58	104
concentration: 7.04 (µM), S9 metabolic activation: without S9, exposure time: 24 hours	1.37	3.48	98.4
concentration: 8.8 (µM), S9 metabolic activation: with S9, exposure time: 3-4 hours	0.29	1.43	104
concentration: 8.8 (µM), S9 metabolic activation: without S9, exposure time: 24 hours	1.18	2.74	108
concentration: 11 (µM), S9 metabolic activation: with S9, exposure time: 3-4 hours	0.17	1.37	117
concentration: 11 (µM), S9 metabolic activation: without S9, exposure time: 24 hours	1.15	3.01	111
concentration: 13.7 (µM), S9 metabolic activation: with S9, exposure time: 3-4 hours	0.33	1.46	104
concentration: 13.7 (µM), S9 metabolic activation: without S9, exposure time: 24 hours	1.26	4.3	92.8
concentration: 17.2 (µM), S9 metabolic activation: with S9, exposure time: 3-4 hours	0.28	1.39	107
concentration: 17.2 (µM), S9 metabolic activation: without S9, exposure time: 24 hours	1.21	3.21	101
concentration: 21.5 (µM), S9 metabolic activation: with S9, exposure time: 3-4 hours	0.45	1.64	102
concentration: 21.5 (µM), S9 metabolic activation: without S9, exposure time: 24 hours	1.5	3.46	114
concentration: 26.8 (µM), S9 metabolic activation: with S9, exposure time: 3-4 hours	0.4	1.09	115
concentration: 26.8 (µM), S9 metabolic activation: without S9, exposure time: 24 hours	2.16	2.61	93.41
concentration: 33.6 (µM), S9 metabolic activation: with S9, exposure time: 3-4 hours	0.29	1.32	104
concentration: 33.6 (µM), S9 metabolic activation: without S9, exposure time: 24 hours	1.98	3.05	93.3
concentration: 41.9 (µM), S9 metabolic activation: with S9, exposure time: 3-4 hours	0.23	1.53	98.9
concentration: 41.9 (µM), S9 metabolic activation: without S9, exposure time: 24 hours	2.49	2.94	92.7
concentration: 52.4 (µM), S9 metabolic activation: with S9, exposure time: 3-4 hours	0.21	1.38	117
concentration: 52.4 (µM), S9 metabolic activation: without S9, exposure time: 24 hours	2.8	2.87	82.71
concentration: 65.5 (µM), S9 metabolic activation: with S9, exposure time: 3-4 hours	0.31	1.26	113
concentration: 65.5 (µM), S9 metabolic activation: without S9, exposure time: 24 hours	3.08	3.27	105
concentration: 81.9 (µM), S9 metabolic activation: with S9, exposure time: 3-4 hours	0.39	1.36	110
concentration: 81.9 (µM), S9 metabolic activation: without S9, exposure time: 24 hours	3.32	3.6	93.7
concentration: 102 (µM), S9 metabolic activation: with S9, exposure time: 3-4 hours	0.38	1.19	103
concentration: 102 (µM), S9 metabolic activation: without S9, exposure time: 24 hours	3.88	4.35	73.8
concentration: 128 (µM), S9 metabolic activation: with S9, exposure time: 3-4 hours	0.32	1.34	111
concentration: 128 (µM), S9 metabolic activation: without S9, exposure time: 24 hours	4.14	6.75	72.1
concentration: 160 (µM), S9 metabolic activation: with S9, exposure time: 3-4 hours	0.32	1.19	102
concentration: 160 (µM), S9 metabolic activation: without S9, exposure time: 24 hours	5.41	9.81	77.2
concentration: 200 (µM), S9 metabolic activation: with S9, exposure time: 3-4 hours	0.32	1.49	102
concentration: 200 (µM), S9 metabolic activation: without S9, exposure time: 24 hours	6.86	14	57.52

CCN(CC)C(=O)SCc1ccc(Cl)cc1 [Thiobencarb]
Details	hypodiploid nuclei frequency, CHO-K1 [2] [%]	micronucleus frequency, CHO-K1 [1] [%]	relative survival, CHO-K1 [3]
concentration: 4.5 (µM), S9 metabolic activation: with S9, exposure time: 3-4 hours	0.48	1.6	89.8
concentration: 4.5 (µM), S9 metabolic activation: without S9, exposure time: 24 hours	0.75	2.06	142
concentration: 5.63 (µM), S9 metabolic activation: with S9, exposure time: 3-4 hours	0.28	1.22	84.6
concentration: 5.63 (µM), S9 metabolic activation: without S9, exposure time: 24 hours	0.95	1.68	115
concentration: 7.04 (µM), S9 metabolic activation: with S9, exposure time: 3-4 hours	0.35	1.27	87.2
concentration: 7.04 (µM), S9 metabolic activation: without S9, exposure time: 24 hours	0.67	1.47	135
concentration: 8.8 (µM), S9 metabolic activation: with S9, exposure time: 3-4 hours	0.29	1.23	89.2
concentration: 8.8 (µM), S9 metabolic activation: without S9, exposure time: 24 hours	0.64	1.79	158
concentration: 11 (µM), S9 metabolic activation: with S9, exposure time: 3-4 hours	0.28	1.18	88.2
concentration: 11 (µM), S9 metabolic activation: without S9, exposure time: 24 hours	0.92	2.02	116
concentration: 13.7 (µM), S9 metabolic activation: with S9, exposure time: 3-4 hours	0.26	1.54	95
concentration: 13.7 (µM), S9 metabolic activation: without S9, exposure time: 24 hours	0.78	2.25	112
concentration: 17.2 (µM), S9 metabolic activation: with S9, exposure time: 3-4 hours	0.26	1.35	105
concentration: 17.2 (µM), S9 metabolic activation: without S9, exposure time: 24 hours	0.73	2.33	124
concentration: 21.5 (µM), S9 metabolic activation: with S9, exposure time: 3-4 hours	0.28	1.84	92.2
concentration: 21.5 (µM), S9 metabolic activation: without S9, exposure time: 24 hours	0.74	1.54	105
concentration: 26.8 (µM), S9 metabolic activation: with S9, exposure time: 3-4 hours	0.225	0.81	62.1
concentration: 26.8 (µM), S9 metabolic activation: without S9, exposure time: 24 hours	1.02	3.03	117
concentration: 33.6 (µM), S9 metabolic activation: with S9, exposure time: 3-4 hours	0.24	0.97	93.8
concentration: 33.6 (µM), S9 metabolic activation: without S9, exposure time: 24 hours	1.12	1.75	128
concentration: 41.9 (µM), S9 metabolic activation: with S9, exposure time: 3-4 hours	0.27	1.17	78.7
concentration: 41.9 (µM), S9 metabolic activation: without S9, exposure time: 24 hours	0.79	1.97	109
concentration: 52.4 (µM), S9 metabolic activation: with S9, exposure time: 3-4 hours	0.405	0.89	58.9
concentration: 52.4 (µM), S9 metabolic activation: without S9, exposure time: 24 hours	0.82	2.11	98.5
concentration: 65.5 (µM), S9 metabolic activation: with S9, exposure time: 3-4 hours	1.04	1.82	57.5
concentration: 65.5 (µM), S9 metabolic activation: without S9, exposure time: 24 hours	0.62	1.93	106
concentration: 81.9 (µM), S9 metabolic activation: with S9, exposure time: 3-4 hours	–	–	42.4
concentration: 81.9 (µM), S9 metabolic activation: without S9, exposure time: 24 hours	0.99	2.21	109
concentration: 102 (µM), S9 metabolic activation: with S9, exposure time: 3-4 hours	–	–	29.9
concentration: 102 (µM), S9 metabolic activation: without S9, exposure time: 24 hours	0.91	2.23	87.6
concentration: 128 (µM), S9 metabolic activation: with S9, exposure time: 3-4 hours	–	–	17.6
concentration: 128 (µM), S9 metabolic activation: without S9, exposure time: 24 hours	1.32	2.28	94.8
concentration: 160 (µM), S9 metabolic activation: with S9, exposure time: 3-4 hours	–	–	6.22
concentration: 160 (µM), S9 metabolic activation: without S9, exposure time: 24 hours	1.27	2.99	79.2
concentration: 200 (µM), S9 metabolic activation: with S9, exposure time: 3-4 hours	–	–	1.13
concentration: 200 (µM), S9 metabolic activation: without S9, exposure time: 24 hours	1.13	1.96	57.3

C[C@]12C=CC(=O)C=C1CC[C@H]1[C@@H]3C[C@@H](O)[C@](O)(C(=O)CO)[C@@]3(C)C[C@H](O)[C@@]12F [Triamcinolone]
Details	hypodiploid nuclei frequency, CHO-K1 [2] [%]	micronucleus frequency, CHO-K1 [1] [%]	relative survival, CHO-K1 [3]
concentration: 4.5 (µM), S9 metabolic activation: with S9, exposure time: 3-4 hours	0.24	1.1	75.5
concentration: 4.5 (µM), S9 metabolic activation: without S9, exposure time: 24 hours	0.48	1.14	93.6
concentration: 5.63 (µM), S9 metabolic activation: with S9, exposure time: 3-4 hours	0.22	1.64	81.1
concentration: 5.63 (µM), S9 metabolic activation: without S9, exposure time: 24 hours	0.42	1.02	120
concentration: 7.04 (µM), S9 metabolic activation: with S9, exposure time: 3-4 hours	0.22	1.26	78.6
concentration: 7.04 (µM), S9 metabolic activation: without S9, exposure time: 24 hours	0.6	1.3	97.9
concentration: 8.8 (µM), S9 metabolic activation: with S9, exposure time: 3-4 hours	0.34	1.52	82.2
concentration: 8.8 (µM), S9 metabolic activation: without S9, exposure time: 24 hours	0.54	1.16	90.1
concentration: 11 (µM), S9 metabolic activation: with S9, exposure time: 3-4 hours	0.16	0.84	97.7
concentration: 11 (µM), S9 metabolic activation: without S9, exposure time: 24 hours	0.52	1.12	91.1
concentration: 13.7 (µM), S9 metabolic activation: with S9, exposure time: 3-4 hours	0.32	1.16	101
concentration: 13.7 (µM), S9 metabolic activation: without S9, exposure time: 24 hours	0.6	1.4	111
concentration: 17.2 (µM), S9 metabolic activation: with S9, exposure time: 3-4 hours	0.28	1.52	97.4
concentration: 17.2 (µM), S9 metabolic activation: without S9, exposure time: 24 hours	0.4	1.12	97.9
concentration: 21.5 (µM), S9 metabolic activation: with S9, exposure time: 3-4 hours	0.28	1.54	95.5
concentration: 21.5 (µM), S9 metabolic activation: without S9, exposure time: 24 hours	0.46	1.14	90.6
concentration: 26.8 (µM), S9 metabolic activation: with S9, exposure time: 3-4 hours	0.22	1.06	110
concentration: 26.8 (µM), S9 metabolic activation: without S9, exposure time: 24 hours	0.76	1.42	97.9
concentration: 33.6 (µM), S9 metabolic activation: with S9, exposure time: 3-4 hours	0.34	1.14	96.5
concentration: 33.6 (µM), S9 metabolic activation: without S9, exposure time: 24 hours	0.58	1.46	132
concentration: 41.9 (µM), S9 metabolic activation: with S9, exposure time: 3-4 hours	0.36	1.04	97.9
concentration: 41.9 (µM), S9 metabolic activation: without S9, exposure time: 24 hours	0.7	1.46	124
concentration: 52.4 (µM), S9 metabolic activation: with S9, exposure time: 3-4 hours	0.26	1.04	92.3
concentration: 52.4 (µM), S9 metabolic activation: without S9, exposure time: 24 hours	0.82	1.36	88.7
concentration: 65.5 (µM), S9 metabolic activation: with S9, exposure time: 3-4 hours	0.3	1.48	108
concentration: 65.5 (µM), S9 metabolic activation: without S9, exposure time: 24 hours	0.9	1.28	109
concentration: 81.9 (µM), S9 metabolic activation: with S9, exposure time: 3-4 hours	0.34	0.98	96
concentration: 81.9 (µM), S9 metabolic activation: without S9, exposure time: 24 hours	0.62	1.16	107
concentration: 102 (µM), S9 metabolic activation: with S9, exposure time: 3-4 hours	0.24	1.3	105
concentration: 102 (µM), S9 metabolic activation: without S9, exposure time: 24 hours	0.74	1.3	108
concentration: 128 (µM), S9 metabolic activation: with S9, exposure time: 3-4 hours	0.16	1.18	85.8
concentration: 128 (µM), S9 metabolic activation: without S9, exposure time: 24 hours	0.78	1.48	97.9
concentration: 160 (µM), S9 metabolic activation: with S9, exposure time: 3-4 hours	0.16	0.96	97.4
concentration: 160 (µM), S9 metabolic activation: without S9, exposure time: 24 hours	1	1.6	93.1
concentration: 200 (µM), S9 metabolic activation: with S9, exposure time: 3-4 hours	0.14	1.72	80.7
concentration: 200 (µM), S9 metabolic activation: without S9, exposure time: 24 hours	0.86	1.88	94.1
